# Test results as given in PMC8141066.
# The chains behind the UniProt entries cited, without tags or fusion partners.
# UniProt O94973: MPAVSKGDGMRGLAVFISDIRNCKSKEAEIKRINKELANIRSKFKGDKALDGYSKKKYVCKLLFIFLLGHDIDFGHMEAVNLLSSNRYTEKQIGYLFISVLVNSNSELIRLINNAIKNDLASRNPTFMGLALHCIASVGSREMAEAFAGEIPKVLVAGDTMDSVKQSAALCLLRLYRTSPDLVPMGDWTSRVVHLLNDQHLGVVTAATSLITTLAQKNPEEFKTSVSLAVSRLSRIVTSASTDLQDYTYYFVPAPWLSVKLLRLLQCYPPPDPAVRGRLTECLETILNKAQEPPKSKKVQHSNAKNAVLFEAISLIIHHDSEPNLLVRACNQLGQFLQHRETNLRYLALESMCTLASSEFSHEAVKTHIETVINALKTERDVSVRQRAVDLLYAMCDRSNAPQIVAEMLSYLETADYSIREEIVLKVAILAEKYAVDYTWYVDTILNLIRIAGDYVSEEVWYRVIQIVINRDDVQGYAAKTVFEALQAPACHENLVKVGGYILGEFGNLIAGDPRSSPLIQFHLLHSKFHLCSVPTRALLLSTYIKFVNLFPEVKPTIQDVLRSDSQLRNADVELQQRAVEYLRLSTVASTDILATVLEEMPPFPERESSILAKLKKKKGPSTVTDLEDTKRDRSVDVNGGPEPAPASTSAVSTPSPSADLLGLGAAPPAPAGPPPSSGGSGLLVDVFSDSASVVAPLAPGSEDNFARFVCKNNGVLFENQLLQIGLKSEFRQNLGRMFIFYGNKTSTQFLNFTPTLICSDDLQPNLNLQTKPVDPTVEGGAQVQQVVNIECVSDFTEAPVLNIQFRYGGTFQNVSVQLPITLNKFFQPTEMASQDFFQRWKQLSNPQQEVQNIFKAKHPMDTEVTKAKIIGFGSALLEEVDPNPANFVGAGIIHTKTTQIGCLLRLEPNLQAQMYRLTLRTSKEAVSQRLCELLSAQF
# UniProt Q00610: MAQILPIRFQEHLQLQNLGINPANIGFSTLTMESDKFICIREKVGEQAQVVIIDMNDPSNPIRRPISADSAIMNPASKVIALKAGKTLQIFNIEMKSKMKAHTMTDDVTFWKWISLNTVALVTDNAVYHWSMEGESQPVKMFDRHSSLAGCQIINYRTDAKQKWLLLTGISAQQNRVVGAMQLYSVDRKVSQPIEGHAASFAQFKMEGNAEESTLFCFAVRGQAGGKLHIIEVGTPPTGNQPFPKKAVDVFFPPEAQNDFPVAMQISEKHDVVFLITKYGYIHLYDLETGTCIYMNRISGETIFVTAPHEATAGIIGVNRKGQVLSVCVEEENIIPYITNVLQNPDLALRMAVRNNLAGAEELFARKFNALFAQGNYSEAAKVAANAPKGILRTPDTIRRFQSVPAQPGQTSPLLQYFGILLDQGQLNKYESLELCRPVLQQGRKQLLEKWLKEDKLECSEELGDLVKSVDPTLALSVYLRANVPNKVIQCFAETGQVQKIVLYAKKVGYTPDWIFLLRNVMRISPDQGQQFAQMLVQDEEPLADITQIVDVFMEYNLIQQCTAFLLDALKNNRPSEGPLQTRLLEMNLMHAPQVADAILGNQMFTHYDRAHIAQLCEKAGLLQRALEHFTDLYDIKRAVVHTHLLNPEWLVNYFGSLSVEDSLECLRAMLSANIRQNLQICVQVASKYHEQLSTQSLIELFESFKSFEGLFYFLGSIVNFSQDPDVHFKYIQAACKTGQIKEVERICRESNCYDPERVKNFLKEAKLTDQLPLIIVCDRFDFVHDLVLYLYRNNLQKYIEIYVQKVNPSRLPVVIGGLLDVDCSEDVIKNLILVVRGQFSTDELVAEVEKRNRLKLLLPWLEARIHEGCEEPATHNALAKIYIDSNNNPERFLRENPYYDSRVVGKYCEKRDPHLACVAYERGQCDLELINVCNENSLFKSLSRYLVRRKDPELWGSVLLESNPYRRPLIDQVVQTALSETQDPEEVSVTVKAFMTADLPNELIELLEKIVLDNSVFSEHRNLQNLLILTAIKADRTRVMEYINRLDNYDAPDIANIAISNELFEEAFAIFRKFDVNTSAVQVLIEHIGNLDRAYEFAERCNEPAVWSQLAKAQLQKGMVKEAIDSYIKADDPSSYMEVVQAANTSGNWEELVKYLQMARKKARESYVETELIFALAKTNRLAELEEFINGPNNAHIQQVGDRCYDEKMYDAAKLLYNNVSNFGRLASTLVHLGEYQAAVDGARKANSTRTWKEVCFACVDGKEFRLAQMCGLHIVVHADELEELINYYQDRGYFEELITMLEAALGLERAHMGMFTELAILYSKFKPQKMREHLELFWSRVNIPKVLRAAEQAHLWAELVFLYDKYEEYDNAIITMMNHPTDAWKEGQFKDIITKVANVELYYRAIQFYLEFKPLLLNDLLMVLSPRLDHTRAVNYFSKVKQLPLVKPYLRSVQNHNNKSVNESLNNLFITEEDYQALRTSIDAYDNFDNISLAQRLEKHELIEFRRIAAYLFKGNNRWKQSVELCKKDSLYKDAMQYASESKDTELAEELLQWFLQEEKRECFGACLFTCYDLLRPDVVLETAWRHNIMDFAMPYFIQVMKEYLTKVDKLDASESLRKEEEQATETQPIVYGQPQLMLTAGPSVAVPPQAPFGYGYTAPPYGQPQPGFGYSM
# UniProt O00443: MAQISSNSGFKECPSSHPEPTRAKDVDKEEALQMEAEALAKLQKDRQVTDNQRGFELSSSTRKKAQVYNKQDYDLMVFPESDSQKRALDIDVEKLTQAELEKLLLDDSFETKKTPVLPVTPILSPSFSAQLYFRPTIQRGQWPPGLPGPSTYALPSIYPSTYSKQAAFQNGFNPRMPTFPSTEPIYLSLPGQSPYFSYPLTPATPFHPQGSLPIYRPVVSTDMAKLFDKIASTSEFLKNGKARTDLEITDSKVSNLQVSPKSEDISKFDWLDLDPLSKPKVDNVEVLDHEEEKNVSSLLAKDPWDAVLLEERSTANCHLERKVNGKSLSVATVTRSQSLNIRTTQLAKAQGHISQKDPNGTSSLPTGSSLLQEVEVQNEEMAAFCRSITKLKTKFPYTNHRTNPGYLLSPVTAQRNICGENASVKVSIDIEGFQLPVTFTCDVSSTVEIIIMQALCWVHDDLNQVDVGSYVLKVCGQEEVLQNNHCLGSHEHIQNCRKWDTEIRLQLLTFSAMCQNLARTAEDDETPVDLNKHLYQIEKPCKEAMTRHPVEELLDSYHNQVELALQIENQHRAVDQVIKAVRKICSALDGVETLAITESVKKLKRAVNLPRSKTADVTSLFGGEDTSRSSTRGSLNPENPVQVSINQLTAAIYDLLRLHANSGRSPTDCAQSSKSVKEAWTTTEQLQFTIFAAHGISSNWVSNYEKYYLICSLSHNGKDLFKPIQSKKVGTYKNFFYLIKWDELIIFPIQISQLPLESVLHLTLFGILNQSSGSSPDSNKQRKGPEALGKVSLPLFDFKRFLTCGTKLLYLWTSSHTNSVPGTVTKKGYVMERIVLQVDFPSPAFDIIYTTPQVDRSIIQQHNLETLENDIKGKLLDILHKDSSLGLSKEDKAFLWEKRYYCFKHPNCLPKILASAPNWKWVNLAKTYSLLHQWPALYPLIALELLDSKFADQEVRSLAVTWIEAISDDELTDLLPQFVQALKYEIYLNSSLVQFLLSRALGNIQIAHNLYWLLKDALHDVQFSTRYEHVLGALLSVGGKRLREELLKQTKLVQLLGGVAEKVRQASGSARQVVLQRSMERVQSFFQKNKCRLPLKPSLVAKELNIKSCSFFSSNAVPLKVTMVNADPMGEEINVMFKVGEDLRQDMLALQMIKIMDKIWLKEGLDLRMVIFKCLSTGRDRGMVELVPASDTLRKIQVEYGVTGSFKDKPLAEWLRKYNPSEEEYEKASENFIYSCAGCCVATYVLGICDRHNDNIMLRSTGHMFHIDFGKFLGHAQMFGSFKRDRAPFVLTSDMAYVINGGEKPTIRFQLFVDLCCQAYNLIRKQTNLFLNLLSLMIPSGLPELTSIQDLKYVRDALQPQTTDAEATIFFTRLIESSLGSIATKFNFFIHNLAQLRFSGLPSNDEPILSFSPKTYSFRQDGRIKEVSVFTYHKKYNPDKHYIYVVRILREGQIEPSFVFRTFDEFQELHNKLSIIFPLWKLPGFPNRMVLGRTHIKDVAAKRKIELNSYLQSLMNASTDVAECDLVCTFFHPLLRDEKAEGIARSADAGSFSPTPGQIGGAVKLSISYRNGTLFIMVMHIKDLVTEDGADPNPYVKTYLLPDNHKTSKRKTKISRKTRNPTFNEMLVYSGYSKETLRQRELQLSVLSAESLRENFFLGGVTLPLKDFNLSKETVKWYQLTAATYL
# These are yes or no findings as the source states them, for the method shown. In cells and extracts the contact can be indirect. Some binding calls cover weakened binding; strength is not graded here. For part of these data: Sequences can lack the tags named with a protein.
# How the values were obtained:
# [1] = biological target: glutamate-rich 3 (ERICH3), endogenous in SK-N-SH cells (human (endogenous in SK-N-SH)) (UniProt Q5RHP9); experiment: co-IP; Co-IP with ERICH3 antibody from SK-N-SH cells, control IgG; Western blot of the partners
# [2] = biological target: mCherry-tagged ERICH3 isoform P-1 (human) (UniProt Q5RHP9); experiment: co-IP; anti-mCherry IP from HEK293T cells overexpressing mCherry-tagged ERICH3 isoforms; Western blot of endogenous partners
# [3] = biological target: T1, mCherry-tagged ERICH3 isoform P-3 (human) (UniProt Q5RHP9); experiment: as above
# T1 sequence: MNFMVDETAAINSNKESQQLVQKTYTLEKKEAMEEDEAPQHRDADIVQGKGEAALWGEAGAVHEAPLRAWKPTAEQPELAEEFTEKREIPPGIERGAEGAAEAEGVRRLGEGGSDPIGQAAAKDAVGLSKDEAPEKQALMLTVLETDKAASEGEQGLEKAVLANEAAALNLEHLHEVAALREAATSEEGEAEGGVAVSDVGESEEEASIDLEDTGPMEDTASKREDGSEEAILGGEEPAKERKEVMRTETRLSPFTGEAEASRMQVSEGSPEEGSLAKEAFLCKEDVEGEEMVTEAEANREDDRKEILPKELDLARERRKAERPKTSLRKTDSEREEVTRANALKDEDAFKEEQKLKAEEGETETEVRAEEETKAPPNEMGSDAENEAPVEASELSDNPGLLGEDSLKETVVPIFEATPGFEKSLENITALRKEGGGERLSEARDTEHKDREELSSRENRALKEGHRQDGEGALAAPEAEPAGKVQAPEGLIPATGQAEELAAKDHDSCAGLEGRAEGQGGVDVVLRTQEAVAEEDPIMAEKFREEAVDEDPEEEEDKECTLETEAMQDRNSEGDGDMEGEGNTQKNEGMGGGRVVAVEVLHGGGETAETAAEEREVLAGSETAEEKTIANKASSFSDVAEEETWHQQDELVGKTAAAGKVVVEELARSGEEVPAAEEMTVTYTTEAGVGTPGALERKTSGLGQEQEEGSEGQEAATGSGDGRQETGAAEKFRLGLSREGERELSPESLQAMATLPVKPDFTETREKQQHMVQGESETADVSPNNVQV
Substance,binding [1],binding [2],binding [3]
adaptor related protein complex 2 subunit alpha 2 (AP2A2) (from UniProt O94973 1-939),binds,binds,no binding
clathrin heavy chain (CLTC) (from UniProt Q00610 1-1675),binds,binds,no binding
phosphatidylinositol-4-phosphate 3-kinase catalytic subunit type 2 alpha (PIK3C2A) (from UniProt O00443 1-1686),binds,binds,no binding
